Test results taken from PubChem BioAssay AID1508624 (National Center for Advancing Translational Sciences (NCATS), 2021).
Screen size: about 48,000 compounds; about 120 (0.25%) were called active. Inconclusive results (about 4%) are left out. The call rests on the fitted dose curve; in most records, active means well fitted activation curve with a large enough effect; inconclusive means small, poorly fitted or top-dose-only effect, or another doubt; inactive means no such curve, though single readings can be large or run the other way. The list shows a part of the results.

test: Primary qHTS for Identification of Small Molecule Activators of Huntingtin-Antisense Promoter Activity; settings: HEK293 HTT-AS promoter firefly luciferase reporter (activity 0% = vehicle and -100% = no light), 24 h; series mostly up to 57.5 µM; activity change, positive = activation: at the top concentration; further: nearly all actives have a fitted effect of over 55% in size
Outline: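 Quantitative HTS used concentration series of up to 57.5 uM final on HEK293 luciferase reporter cells, 24 h at 37 degrees C. Readout was Dual-Glo firefly luminescence.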

Activity change, positive = activation, inactive:
O=C(CC1(O)C(=O)N(CCc2ccccc2)c2ccc(Br)cc21)c1ccc(F)cc1 (stereo not given) -27.4%
CCOc1ccc(CCNC(=O)CCCn2c(=O)c3cccn3c3cccnc32)cc1OCC -1.52%
CCc1ccc2c(c1)c(=O)c(S(=O)(=O)c1ccc(Cl)cc1)cn2CC -15.4%
COc1cccc(CNCCSc2nnnn2C)c1OCc1ccccc1 -14.9%
COC(=O)CC1Oc2ccccc2-n2cc(-c3ccc(C)cc3)nc21 (stereo not given) -12.7%
Nc1c(C(=O)NCc2ccc(Cl)cc2Cl)nnn1Cc1ccc(Br)cc1 -42.1%
COc1ccc(OCC(=O)Nc2cc(-c3ccccc3F)nn2-c2ccccc2)cc1 13.1%
CCc1ccc(CNC(=O)c2cc3cc(S(=O)(=O)N4CCCCC4)ccc3n2C)cc1 -29.4%
Cc1ccc(S(=O)(=O)NCC2CCC(C(=O)NCc3ccc(F)cc3)CC2)cc1 (stereo not given) -5.34%
CCCn1ccc2c(OCC(=O)Nc3cc(C)ccc3C)cccc2c1=O -23.4%
Cc1cc(SCc2sc(-c3ccc(C(F)(F)F)cc3)nc2C)ccc1OCC(=O)O 21.4%
COCCCn1c(=N)c(C(=O)NCC2CCCO2)cc2c(=O)n3cc(C)ccc3nc21 (stereo not given) -1.01%
CC(=O)OCC(=O)[C@H]1CC[C@H]2[C@@H]3CCC4=CC(=O)CC[C@]4(C)[C@H]3CC[C@]12C -7.65%
Cc1ccc2c(=O)cc(C(=O)Nc3ccc(S(=O)(=O)N4CCC(C)CC4)cc3)oc2c1C -8.63%
O=C(Cc1ccccc1)Nc1sc2c(c1C(=O)Nc1ccccc1)CCCCC2 -3.77%
COc1cc(C2CC(=O)Nc3c2c(C)nn3-c2nc(C)cc(C)n2)cc(OC)c1O (stereo not given) -3.19%
COc1cccc(-c2nn3c(=O)cc(CN4CCN(S(=O)(=O)c5ccc(C)cc5)CC4)nc3s2)c1 0.62%
Cc1ccc(CSc2nnc(-n3c(=O)c(C#N)cc4c(=O)n5cccc(C)c5nc43)s2)cc1 -10.6%
COc1ccc(-c2nc3ccccc3n3c(-c4cccc(C)c4)c4c(=O)n(C)c(=O)n(C)c4c23)cc1 -7.16%
CSc1nc(=O)c2c(n1C)NC(=O)CC2c1ccccc1OC(C)C (stereo not given) -4.37%
O=C(/C=C/c1ccccc1)NCCO -2.85%
CCCCn1cc2c(c1-c1ccccc1Br)c(=O)n(C)c(=O)n2C -20.5%
Cc1nc(N2CCOCC2)c2c(C(=O)NCCc3ccccc3)c(C)oc2n1 19.5%
Cc1ccc(C(=O)n2nc(-c3ccco3)nc2NCc2cccs2)cc1 14.5%
COc1ccc(C)cc1NC(=O)C1CCN(S(=O)(=O)c2c(C)noc2/C=C/c2ccco2)CC1 -8.44%
O=C(Nc1ccc(F)cc1F)C(Cc1ccccc1)N1Cc2ccccc2C1=O (stereo not given) -22.9%
COc1cccc(-n2c(-c3ccc(Cl)cc3)cc3c2CC(C)(C)CC3=O)c1 -30.6%
C#C[C@]1(O)CC[C@H]2[C@@H]3CCC4=CC(=O)CC[C@@H]4[C@H]3CC[C@@]21CC -8.52%
Cc1ccc2nc(NC(=O)CSc3nc4c(c(=O)n3-c3ccccc3)SCC4)sc2c1 -33.7%
O=C(CCC(=O)N1CC2CCCN2c2ccccc21)NCc1cccc(Cl)c1 (stereo not given) -20.5%
COc1cc2c(=O)n(Cc3ccccc3Cl)c(=O)n(CC(=O)Nc3ccccc3)c2cc1OC -23.9%
Cc1ccc(C(=O)Nc2nc3ccc(S(=O)(=O)N4CCCC4)cc3s2)cc1 -3.25%
Cc1ccc(-c2nnc(SCC(=O)NC3CCCC3)nc2-c2ccc(C)cc2)cc1 -25.3%
COc1ccc(CN2C(=O)c3oc4ccc(F)cc4c(=O)c3C2c2ccc(O)cc2)cc1 (stereo not given) -11.6%
CCOc1ccc(NC(=O)CCC(=O)N2CC(C)Oc3ccc(C)cc32)cc1 (stereo not given) 0.112%
Cc1ccc(Cn2cc(C(=O)c3ccc(F)cc3)c(=O)c3cc4c(cc32)OCCO4)cc1 -22.3%
CCc1ccccc1NC(=O)CSCc1cnn(-c2ccccc2)c1-n1cccc1 -28.4%
CCOc1ccccc1CNCCNC(=O)c1nonc1N -2.22%
Cc1ccccc1Nc1sc(C(=O)c2ccccc2)c(N)c1C(=O)NCc1ccc(Cl)cc1 -36.7%
Cc1ccc2c(c1)c1c(c(=O)n(-c3ccccc3C)c(=O)n1CC(=O)N1CCCC1)n2C -14.2%
Cc1ccc2ncc3c(-c4ccc(F)cc4)nn(-c4cccc(F)c4)c3c2c1 -13.1%
COc1cc(OC)c(NC(=O)CC(c2cccs2)N2Cc3ccccc3C2=O)cc1Cl (stereo not given) -23.8%
CCOC(=O)C1CCN(S(=O)(=O)c2cc3c4c(c2)CC(=O)N4CCC3)CC1 -10.9%
CC1(C)[C@@H](OC(=O)CCC(=O)O)CC[C@]2(C)[C@H]3C(=O)C=C4[C@@H]5C[C@@](C)(C(=O)O)CC[C@]5(C)CC[C@@]4(C)[C@]3(C)CC[C@@H]12 -3.67%
CN(C)S(=O)(=O)n1cc(/C=C(\NC(=O)c2ccccc2Cl)C(=O)NCCCn2ccnc2)c2ccccc21 -6.54%
O=C(NCCc1ccccc1)C1(c2cccs2)CCOCC1 -12.6%
CCN(CC)CCNC(=O)c1nn(-c2ccc(OC)c(Cl)c2)c(=O)c2c1c1ccccc1n2C -1.42%
O=C(CSc1nc2c(c(=O)[nH]1)CN(Cc1ccc(F)cc1)CC2)Nc1ccccc1Cl -24.1%
COc1cccc(C(=O)N2c3nc(-c4ccco4)nn3C3(CCCCC3)[C@@H]3CCCC[C@@H]32)c1 -42.3%
CCc1nn(C(C)C(=O)N2CCN(c3cccc(C(F)(F)F)c3)CC2)c(=O)c2cc3occc3n12 (stereo not given) -44.5%
CCCNC(=O)c1c(C)nn(-c2cccc(C)c2)c1-n1cccc1 -19.9%
Cc1ccc(Cl)cc1-n1c(=O)c2sc3ccccc3c2n(Cc2ccccc2)c1=O -13.4%
CCOc1cc(-c2nnc(SCC(=O)NC3CCCC3)nc2-c2ccc(OC)c(OCC)c2)ccc1OC 4.77%
Nc1ncnc(Nc2ccccc2)n1 16%
CC(C)CCN1C(=O)c2ccccc2CC1(C)C(=O)NC1CCC(C)CC1 (stereo not given) -7.12%
O=C(CSc1nccn1C1CCCC1)Nc1ccc(C(F)(F)F)cc1 -19.1%
CC(C)c1ccc(-c2nc(C(N)=O)c3c(n2)n(-c2ccc4c(c2)OCO4)c(=O)n3C)cc1 -4.07%
O=C(Nc1cccc(F)c1)[C@H](CSCc1ccccc1)N1Cc2ccccc2C1=O -37.6%
CCOc1ccc(NC(=O)Cn2cc(S(=O)(=O)NC)c(S(=O)(=O)NC)c2)cc1 -9.76%
COc1ccc(NC(=O)C2CCN(S(=O)(=O)c3ccc4[nH]c5c(c4c3)CCCCC5)CC2)cc1 -32.4%
